Assay results: PubChem BioAssay AID624417 (National Center for Advancing Translational Sciences (NCATS), 2012)
The campaign covered roughly 410,000 compounds. About 6,400 (1.6%) were called active. The shares of active, inactive and inconclusive entries below differ from those in the screen. Calls come from the whole dose curve; as a rule, active = well fitted inhibition curve with a large enough effect; inconclusive = small, poorly fitted or top-dose-only effect; inactive = no such curve, though single readings can be large or run the other way. No potency is given beside an inconclusive call; the fits are too rough.

Each compound was assayed against Glucagon-like peptide 1 receptor (Homo sapiens) (UniProt P43220) (assay: qHTS of GLP-1 Receptor Inverse Agonists (Inhibition Mode)). Conditions: HEK293 GLP-1R CRE-luciferase, luminescence, 24 h, GLP-1R form is constitutively active; activity change, negative = inhibition: at 38.3 µM (top of the series) unless noted.
Chain of UniProt P43220 (P43220 whole entry, looked up): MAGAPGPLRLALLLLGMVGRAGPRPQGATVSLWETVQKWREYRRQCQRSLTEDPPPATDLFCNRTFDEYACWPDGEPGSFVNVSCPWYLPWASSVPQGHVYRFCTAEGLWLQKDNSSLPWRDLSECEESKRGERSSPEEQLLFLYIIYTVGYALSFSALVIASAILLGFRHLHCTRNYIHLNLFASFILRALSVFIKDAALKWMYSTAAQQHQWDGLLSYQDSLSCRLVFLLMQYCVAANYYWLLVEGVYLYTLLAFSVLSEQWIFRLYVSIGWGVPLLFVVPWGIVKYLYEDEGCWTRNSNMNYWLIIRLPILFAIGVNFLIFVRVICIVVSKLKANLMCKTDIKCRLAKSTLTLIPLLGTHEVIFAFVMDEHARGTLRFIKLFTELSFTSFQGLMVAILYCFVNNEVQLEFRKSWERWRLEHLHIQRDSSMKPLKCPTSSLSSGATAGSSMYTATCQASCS
In short: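 Readout was luciferase luminescence, measured 12 min after detection reagent at room temperature. Beforehand, GLP-1R reporter HEK293 cells had sat 12 h, then received compounds for 24 hr at 37 deg C.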
% is set by controls: 0 for no effect and ±100 for the full control effect; potency is the fitted concentration of half-maximal effect; tags give direction and shape of the fitted curve.
Note: nearly all actives have a fitted effect of over 55% in size.

| Compound | Potency | activity change, negative = inhibition |
| --- | --- | --- |
| O=C(CCSc1ccccc1)NCCSCc1ccccc1 | inconclusive [inhibitor, single point] | – |
| Cc1sc2ncnc(N(C)CCc3ccccn3)c2c1C | – | inactive: -4.32% |
| CCOC(=O)c1c(C)oc2ncnc(Nc3cccc(C(F)(F)F)c3)c12 | – | inactive: -20.5% |
| Cc1ccc(-c2csc(NC(=O)c3ccc(S(=O)(=O)N4CCc5ccccc54)cc3)n2)cc1 | inconclusive [inhibitor, full curve, poor fit] | – |
| Cc1ccc(/C=C/c2nc3ccccc3s2)s1 | inconclusive [inhibitor, partial curve, poor fit] | – |
| C=CC(=O)Nc1cccc(Nc2nc(N[C@H]3CC[C@H](N(C)C)CC3)nc3c2ncn3C(C)C)c1 | inconclusive [inhibitor, full curve, poor fit] | – |
| CN(C)C=Nc1ncc2c3ccccc3n(CCN(C)C)c2c1C#N | inconclusive [inhibitor, partial curve, poor fit] | – |
| COC(=O)C1=C(C)N(C)C(=S)N(C)C1c1cccc(Br)c1 (stereo unspecified) | inconclusive [inhibitor, partial curve] | – |
| O=C(CSc1nc(O)c(-c2ccccc2)c(=O)[nH]1)N1CCOCC1 | – | inactive: 1.8% [at 0.307 µM] |
| C=CC[C@@H](CC(=O)N[C@H](CO)Cc1ccccc1)C(=O)N[C@H](COC(=O)[C@H](CC=C)CC(=O)OC(C)(C)C)Cc1c[nH]c2ccccc12 | inconclusive [inhibitor, single point] | – |
| O=[N+]([O-])c1ccc(/C=C/c2ccncc2)cc1 | – | inactive: 18.8% |
| Cc1ccc(C(=O)Nc2ccccc2N2CCCC2)cc1 | inconclusive [inhibitor, single point] | – |
| C[C@H](CO)N1C[C@H](C)[C@@H](CN(C)Cc2ccccc2)Oc2c(NC(=O)Cc3ccccc3)cccc2C1=O | inconclusive [inhibitor, partial curve, poor fit] | – |
| CCNC(=O)NC(=O)C(C)Sc1ncc(C(F)(F)F)cc1Cl (stereo unspecified) | inconclusive [inhibitor, single point] | – |
| COc1ccc(C(=O)Nc2ccc3ncccc3c2)cc1 | inconclusive [inhibitor, partial curve, poor fit] | – |
| Cc1nn(CCc2nc(-c3ccco3)cs2)c2[nH]c(=O)cc(C(F)(F)F)c12 | – | inactive: 5.06% |
| O=C(c1cccc(F)c1)N1CCN(Cc2ccco2)CC1 | – | inactive: -0.535% |
| Clc1ccc(C2=CSC3=Nc4cccc5cccc(c45)N23)cc1 | inconclusive [inhibitor, full curve, poor fit] | – |
| Cc1cc(N(CCO)CCO)ccc1N=Nc1cc(F)ccc1F | – | inactive: 4.49% [at 0.307 µM] |
| O=C(C1CCCN(Cc2ccccc2Br)C1)N1CCCCC1 (stereo unspecified) | inconclusive [inhibitor, partial curve, poor fit] | – |
| COCCCNC(=S)N/N=C/c1ccc(OC)cc1 | inconclusive [inhibitor, single point] | – |

| Compound | Potency | activity change, negative = inhibition |
| --- | --- | --- |
| Cc1ccc(-n2ncc3c(NCCCn4ccnc4)ncnc32)cc1C | inconclusive [inhibitor, partial curve, poor fit] | – |
| COCc1cc(C)nc(NCCO)c1C#N | – | inactive: 20.5% |
| COCC(C)n1c(SCC(=O)NC2CCCCC2C)nc2ccccc2c1=O (stereo unspecified) | inconclusive [inhibitor, partial curve, poor fit] | – |
| CCN(c1ccccc1)S(=O)(=O)c1ccc(Cl)c(NC(=O)CSc2nncs2)c1 | inconclusive [inhibitor, partial curve, poor fit] | – |
| Cc1cc2c(C)cc(=O)[nH]c2cc1NC(=O)CCl | inconclusive [inhibitor, single point] | – |
| COc1ccccc1-c1cnc(C(O)c2ccc(SC)cc2)[nH]1 (stereo unspecified) | inconclusive [inhibitor, single point] | – |
| O=C(On1c(-c2ccccc2)nc2ccccc2c1=O)c1ccco1 | inconclusive [inhibitor, partial curve, poor fit] | – |
| CCOC(=O)N1CCc2c(sc3c2c(=O)n(-c2ccc(CC)cc2)c(=O)n3Cc2ccc(F)cc2Cl)C1 | – | inactive: 7.24% |
| O=C(c1ccccc1)c1ccc(C(=O)N2CCN(c3ccc(O)cc3)CC2)cc1 | inconclusive [inhibitor, partial curve, poor fit] | – |
| COc1ccc(N2CCN(CCCNC(=O)c3c(C)nn(-c4ccc(F)cc4)c3-n3cccc3)CC2)cc1 | – | inactive: -31.2% |
| Cc1ccc(S(=O)(=O)N(C)C[C@@H]2OCCCC[C@@H](C)Oc3ccc(NS(=O)(=O)c4c(C)noc4C)cc3C(=O)N([C@H](C)CO)C[C@@H]2C)cc1 | inconclusive [inhibitor, single point] | – |
| CNS(=O)(=O)c1ccc(C(=O)NCC(=O)NCC2COc3ccccc3O2)cc1 (stereo unspecified) | – | inactive: 8.76% |
| CCc1ccc(NC(=O)Cn2nnc(-c3ccccc3N)n2)cc1 | inconclusive [inhibitor, single point] | – |
| COc1ccc(S(=O)(=O)N(CC(=O)NC(C)c2ccccc2)c2ccc(C)cc2)cc1OC (stereo unspecified) | inconclusive [inhibitor, single point] | – |
| CCOC(=O)C1CCN(CC(C)(C)NS(=O)(=O)c2ccc(Cl)cc2)CC1 | inconclusive [inhibitor, single point] | – |
| CC1CCCC(C)N1C(=O)COc1cccc(Oc2ccccc2)c1 (stereo unspecified) | inconclusive [inhibitor, partial curve, poor fit] | – |
| COc1ccccc1-n1c(=O)n(C)c2c(C(N)=O)nc(-c3cccc(OC)c3OC)nc21 | – | inactive: 7.79% |
| CCN1CCCc2cc(CN(CCN3CCOCC3)C(=O)Nc3ccc(C)c(C)c3)ccc21 | inconclusive [inhibitor, single point] | – |
| Cc1cc(NC(=O)CCN2C(=O)C3C4CCC(C4)C3C2=O)cc(C)c1Br (stereo unspecified) | inconclusive [inhibitor, single point] | – |
| Cc1cc(-c2nn(-c3ccccc3F)cc2CN2CCCC(CO)C2)c(C)s1 (stereo unspecified) | inconclusive [inhibitor, partial curve, poor fit] | – |
